One experiment relates to HSkMC. As to the kind of experiment: cytotoxicity call (relative viability < 0.9). The note with it: 10 µM.
A further experiment has as its system HepG2. Put plainly: cytotoxicity call (relative viability < 0.9). The note with it: 10 µM.
Another experiment relates to S. aureus RN4220. Put plainly: growth inhibition call (relative growth <= 0.2). The note with it: 50 µM.

The other results are listed elsewhere or left out.

In the case of `Cc1noc(C)c1S(=O)(=O)Nc1ccc2c(c1)C(=O)N([C@H](C)CO)C[C@@H](C)[C@H](CN(C)C(=O)Nc1ccccc1)OCCCC[C@@H](C)O2`, the cytotoxicity call in the experiment with HSkMC and with HepG2 was “inactive” in each case. In addition, the growth inhibition call with S. aureus RN4220 is “inactive”.
Consider `CO[C@@H](CN(C)C(=O)c1ccc2c(c1)OCO2)[C@@H](C)CN([C@H](C)CO)S(=O)(=O)c1ccc(F)cc1`, for which the cytotoxicity call in the experiment on HSkMC and in the experiment with HepG2 was “inactive” in each case. In the experiment on S. aureus RN4220, the growth inhibition call was “inactive”.
Take `C[C@@H]1CCCCO[C@@H](CN(C)C(=O)Nc2ccccc2)[C@H](C)CN([C@@H](C)CO)C(=O)c2cc(NC(=O)Nc3cccc4ccccc34)ccc2O1`: the cytotoxicity call in the experiment on HSkMC and with HepG2 was “inactive” in each case. In addition, the growth inhibition call in the experiment with S. aureus RN4220 is “inactive”.
For `Cc1ccc(S(=O)(=O)N2CCNCC2)cc1`, the cytotoxicity call in the experiment with HSkMC and in the experiment on HepG2 was “inactive” each time. Also, the growth inhibition call with S. aureus RN4220 is “inactive”.
For the compound `COc1ccc(S(=O)(=O)N(C)C[C@H]2Oc3c(NS(=O)(=O)c4c(C)noc4C)cccc3C(=O)N([C@H](C)CO)C[C@H]2C)cc1`, the cytotoxicity call with HSkMC and in the experiment on HepG2 was “inactive” in each case. In addition, the growth inhibition call in the experiment with S. aureus RN4220 was “inactive”.
As to `C#CCN(C)CCCOc1ccc(Cl)cc1Cl.Cl`, the cytotoxicity call with HSkMC and in the experiment on HepG2 was “inactive” in each case. Also, the growth inhibition call in the experiment on S. aureus RN4220 is “inactive”.
For the compound `N#C[C@@H]1[C@H](c2ccc(C#Cc3ccccn3)cc2)[C@@H](CO)N1C(=O)CN1CCOCC1`, the cytotoxicity call in the experiment with HSkMC and with HepG2 was “inactive” each time. In the experiment on S. aureus RN4220, the growth inhibition call is “inactive”.
Regarding `C[C@@H]1CN([C@H](C)CO)C(=O)Cc2cc(NC(=O)Cn3cnnn3)ccc2O[C@@H]1CN(C)Cc1ccc(-c2ccccc2)cc1`, the cytotoxicity call in the experiment on HSkMC and in the experiment on HepG2 was “inactive” in each case. Also, in the experiment with S. aureus RN4220, the growth inhibition call is “inactive”.
As to `C[C@@H]1CN([C@@H](C)CO)S(=O)(=O)c2ccc(C#Cc3cccnc3)cc2O[C@H]1CN(C)C(=O)Nc1ccc2c(c1)OCO2`, the cytotoxicity call with HSkMC and with HepG2 was “inactive” each time. Also, the growth inhibition call with S. aureus RN4220 is “inactive”.
Turning to `C[C@@H]1CN([C@@H](C)CO)C(=O)c2cc(NC(=O)Nc3ccc(F)cc3)ccc2O[C@H]1CN(C)C(=O)Nc1ccc(C(F)(F)F)cc1`, the cytotoxicity call in the experiment with HSkMC and in the experiment with HepG2 was “inactive” each time. In addition, in the experiment on S. aureus RN4220, the growth inhibition call was “inactive”.
Turning to `C[C@H]1CN([C@@H](C)CO)C(=O)c2c(c3ccccc3n2C)-c2ccccc2CO[C@@H]1CN(C)C(=O)Nc1cccc(Cl)c1Cl`, the cytotoxicity call with HSkMC is “active”. The cytotoxicity call in the experiment with HepG2 was “inactive”. In the experiment with S. aureus RN4220, the growth inhibition call is “inactive”.
For `C[C@@H]1CN([C@@H](C)CO)C(=O)c2cc(NS(=O)(=O)c3cccs3)ccc2O[C@@H](C)CCCCO[C@@H]1CN(C)C(=O)Nc1ccccc1`, the cytotoxicity call in the experiment on HSkMC (human skeletal muscle cells) and with HepG2 was “inactive” in each case. Moreover, the growth inhibition call in the experiment on S. aureus RN4220 was “inactive”.
`O=C(C[C@@H]1CC[C@@H]2[C@H](COC[C@H](O)CN2S(=O)(=O)c2ccccc2)O1)NCCN1CCCCC1`: the cytotoxicity call with HSkMC and in the experiment with HepG2 was “inactive” throughout. Also, the growth inhibition call with S. aureus RN4220 was “inactive”.
